Results taken from PubChem BioAssay AID493208 (National Center for Advancing Translational Sciences (NCATS), 2011).
Out of some 44,000 compounds screened, about 340 (0.77%) were called active. Inconclusive results (about 5%) are left out. The call rests on the fitted dose curve; in most records, active means well fitted inhibition curve with a large enough effect; inconclusive means small, poorly fitted or top-dose-only effect; inactive means flat fitted curve, though single readings scatter. This is one part of the list.

Experiment: Acumen qHTS Assay for Inhibitors of the mTORC1 Signaling Pathway in MEF (Tsc2-/-, p53-/-) Cells: Sytravon; further: nearly all actives have a fitted effect of over 50% in size;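 on activity change, negative = inhibition: plate controls were DMSO for no effect and rapamycin for full effect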
Conditions: phospho-rpS6 immunofluorescence/PI, 24 h; series mostly up to 38.3 µM; activity change, negative = inhibition: at the top concentration
Method in brief: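 Immunofluorescence of rpS6 phosphorylation in Tsc2-/-, p53-/- MEFs after 24 h compound exposure, normalized to propidium iodide signal. Activity is expressed as % positive cells, thresholded with 7.5 nM rapamycin.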
Potency means the concentration at half of the fitted maximal effect.

Row | Structure (SMILES) | activity change, negative = inhibition | Potency
1 | CCN(C(=O)Nc1cn(CC(C)C)c(=O)c2ccccc12)c1cc(C)ccc1C | inactive: 6.41% | 
2 | Cc1ccc2nc(Nc3ccc(C)c(F)c3)c3nncn3c2c1 | inactive: -4.46% | 
3 | Cc1ccc(CNC(=O)CCn2cnc3ccccc3c2=O)cc1 | inactive: -12.8% | 
4 | Cc1c(Cl)cccc1NC(=O)C1CCN(c2ncnc3c2nc2n3CCCCC2)CC1 | inactive: 0.222% | 
5 | COc1ccccc1CN1C(=O)CN(C2CCCCCC2)C(=O)C1c1ccc(F)cc1 (centres undefined) | inactive: 8.65% | 
6 | CCn1nc(C)c(CCN(C)C(=O)Nc2cc(OC)c(OC)c(OC)c2)c1C | inactive: 0% | 
7 | CCOC(=O)c1cnn(-c2ccc(C(=O)Nc3cccc(C(C)=O)c3)cc2)c1N | inactive: -2.31% | 
8 | Cc1ccc(N2CC(NC(=O)c3ccc(S(=O)(=O)N4CCOCC4)cc3)CC2=O)cc1 (centres undefined) | inactive: -1.22% | 
9 | COc1ccc2cc(C(=O)NCc3ccc4c(c3)CCN4C(=O)c3ccc(F)cc3)[nH]c2c1 | inactive: -0.724% | 
10 | O=C(COCc1cc(-c2cccs2)on1)N1CCN(c2cccc(Cl)c2)CC1 | inactive: -7.63% | 
11 | Fc1cccc(-c2nnn3c2nc(NCCc2ccccc2)c2ccccc23)c1 | inactive: 0.674% | 
12 | O=C(CCn1c(=O)c2cccn2c2cccnc21)N1CCN(c2ccccc2F)CC1 | inactive: 4.59% | 
13 | COc1cc(C)cc2oc(=O)c(CC(=O)NCCc3ccc(Cl)cc3)c(C)c12 | inactive: 1.15% | 
14 | CC(C)CNC(=O)N1[C@H](c2cccs2)[C@@H](C)C(=O)[C@@H](C)[C@@H]1c1cccs1 | inactive: -0.707% | 
15 | Cc1cccc(OCC(=O)Nc2ccc(-c3nc4ccccc4o3)cc2)c1C | inactive: -3.25% | 
16 | CCn1c(=N)n(CCOc2ccc(Br)cc2)c2ccccc21 |  | active: 13.1 µM
17 | COc1ccc(C)cc1NS(=O)(=O)c1c(C(=O)N2CCCCCC2)c(C)n(C)c1C | inactive: -0.0296% | 
18 | CC(C)OCCCNC(=O)Cn1ccc2cc(S(=O)(=O)N3CCCCCC3)ccc21 | inactive: 0.613% | 
19 | COc1ccc(CC(=O)NCCc2csc(-c3cccc(C)c3)n2)cc1 | inactive: -6.61% | 
20 | Cc1ccc(CCNS(=O)(=O)c2ccc3c(c2)CC(C)N3C(=O)C2CCC2)cc1 (centres undefined) | inactive: -17.7% | 
21 | Cc1oc(-c2ccccc2Cl)nc1Cn1c(SCc2cccc(F)c2)nc2cccnc21 | inactive: 2.2% | 
22 | Cc1nc(-c2ccccc2)sc1-c1ccc(SCC(=O)NCc2ccc(Cl)cc2)nn1 | inactive: -4.31% | 
23 | CC(=O)c1cccc(NC(=O)CC(c2ccc(C)cc2)N2Cc3ccccc3C2=O)c1 (centres undefined) | inactive: -7.72% | 
24 | CC(CNC(=O)c1nnc(Cc2ccc(F)cc2)o1)c1ccccc1 (centres undefined) | inactive: -21.8% | 
25 | Cc1ccc(-n2nc3c(=O)n(CC(=O)NCCC(C)C)nc(C)c3c2C)cc1 | inactive: -9.77% | 

Row | Structure (SMILES) | activity change, negative = inhibition | Potency
26 | COc1cc2ncc(C(=O)c3ccc(C)cc3)c(N3CCCCC3)c2cc1OC | inactive: -5.95% | 
27 | COCCCNC(=O)Cn1c(=O)nc(-c2ccccc2)c2ccccc21 | inactive: 9.62% | 
28 | COc1ccc(Cn2cc(C(=O)c3ccc(C)c(C)c3)c(=O)c3ccccc32)cc1 | inactive: -1.9% | 
29 | CCCCC12CN3CC(C)(CN(C1)C3c1ccc(O)c(OC)c1)C2=O (centres undefined) | inactive: 1.25% | 
30 | CCOc1ccc(CCNC(=O)c2cc(C)nc3c2c(C)nn3-c2cccc(F)c2)cc1 | inactive: 6.77% | 
31 | Cc1cccn2c(=O)c(C(=O)NCCc3ccccc3)cnc12 | inactive: -4.43% | 
32 | O=C(Cn1cc(S(=O)(=O)Cc2cccc(Cl)c2)c2ccccc21)Nc1ccccc1Cl | inactive: -4.26% | 
33 | COc1cccc(NC(=O)CSc2nccn2C2CCCC2)c1 | inactive: -1.43% | 
34 | O=C(NC1CCCC1)c1ccc2c(c1)N(Cc1ccccc1)C(=O)c1ccccc1S2 | inactive: 9.11% | 
35 | CC1CCN(c2nc3ccc(C(=O)NCc4ccccc4Cl)cc3s2)CC1 | inactive: 1.63% | 
36 | COc1cccc(CNC(=O)Cc2c(C)c3ccc(OC)c(C)c3oc2=O)c1 | inactive: -1.37% | 
37 | Cc1ccc(F)cc1NC(=O)Cn1c(C)cc(C)c(C#N)c1=O | inactive: -14.6% | 
38 | O=C(NCc1cccc(Br)c1)c1ccc(NC(=O)N2CCCCc3ccccc32)cc1 | inactive: -12.6% | 
39 | COc1ccc(N2CCN(Cc3nc4c(c(=O)[nH]c(=O)n4C)n3CC(C)C)CC2)cc1 | inactive: -17.2% | 
40 | Cc1ccc(S(=O)(=O)c2nnn3c2nc(NCCc2ccccc2)c2sccc23)cc1 | inactive: -1.42% | 
41 | CC(=O)c1ccc(NS(=O)(=O)c2ccc3[nH]c4c(c3c2)CCCC4)cc1 | inactive: -4.48% | 
42 | Cc1ccccc1C(=O)Nc1c(C)nc2ccccn2c1=O | inactive: 0% | 
43 | Cc1ccc(CNC(=O)c2c[nH]n3c(=O)c(Cc4ccc(Cl)cc4)c(C)nc23)cc1 | inactive: -19.3% | 
44 | CCc1ccc(S(=O)(=O)c2cn(Cc3ccccc3F)c3cc(OC)c(OC)cc3c2=O)cc1 | inactive: -8.34% | 
45 | CCOc1ccc(C2c3[nH]c4ccccc4c3CCN2C(=O)CSCc2ccc(F)cc2)cc1 (centres undefined) | inactive: -7.86% | 
46 | O=C(NCCc1ccccc1)c1nn(-c2ccc(F)cc2)nc1CO | inactive: -13.7% | 
47 | Cc1cccc(CNC(=O)c2ccc3nc(Cc4ccccc4)oc3c2)c1 | inactive: -15.2% | 
48 | COc1ccc(NC(=O)CSc2nnc(NC(=O)NC3CCCCC3)s2)cc1OC | inactive: 2.08% | 
49 | Cc1cc(S(=O)(=O)NCC(c2ccco2)S(=O)(=O)c2cccs2)ccc1F (centres undefined) | inactive: -12.6% | 
